Laboratory results taken from the supplement of paper PMC8728848.
Some of the results follow.

Key:
Test in all cases: glycan array binding signal (z-score within array); higher = stronger binding
Settings in all cases: glycan notation: IUPAC condensed, linker removed
[1] = target: GlcNAc(b1-3)Gal(b1-3)GalNAc
Procedure, shortened: (§1)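 Negative Z-scores can be read as non-binding. The Z-score is calculated within each array and then averaged across arrays of one protein sequence at different concentrations or buffers and across linkers. Arrays, 3228 in all, were curated from the Consortium for Functional Glycomics database and kept only where the protein sequence was available.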

GlcNAc(b1-3)Gal(b1-4)Glc = target: GlcNAc(b1-3)Gal(b1-4)Glc
Procedure, shortened: as §1

[2] = target: GlcNAc(b1-3)Gal(b1-4)GlcNAc
Procedure, shortened: as §1

[3] = target: GlcNAc(b1-3)Gal(b1-4)GlcNAc(b1-3)Gal(b1-4)GlcNAc
Procedure, shortened: as §1

GlcNAc(b1-3)GalNAc = target: GlcNAc(b1-3)GalNAc
Procedure, shortened: as §1

GlcNAc(b1-3)Man = target: GlcNAc(b1-3)Man
Procedure, shortened: as §1

[4] = target: GlcNAc(b1-3)[GlcNAc(b1-4)][GlcNAc(b1-6)]GlcNAc
Procedure, shortened: as §1

[5] = target: GlcNAc(b1-3)[GlcNAc(b1-6)]Gal(b1-4)GlcNAc
Procedure, shortened: as §1

[6] = target: GlcNAc(b1-3)[GlcNAc(b1-6)]GalNAc
Procedure, shortened: as §1

[7] = target: GlcNAc(b1-4)Gal(b1-4)GlcNAc
Procedure, shortened: as §1

GlcNAc(b1-4)GlcNAc = target: GlcNAc(b1-4)GlcNAc
Procedure, shortened: as §1

[8] = target: GlcNAc(b1-4)GlcNAc(b1-4)GlcNAc
Procedure, shortened: as §1

[9] = target: GlcNAc(b1-4)GlcNAc(b1-4)GlcNAc(b1-4)GlcNAc(b1-4)GlcNAc
Procedure, shortened: as §1

[10] = target: GlcNAc(b1-4)GlcNAc(b1-4)GlcNAc(b1-4)GlcNAc(b1-4)GlcNAc(b1-4)GlcNAc
Procedure, shortened: as §1

[11] = target: GlcNAc(b1-4)[GlcNAc(b1-6)]GalNAc
Procedure, shortened: as §1

[12] = target: GlcNAc(b1-6)Gal(b1-4)GlcNAc
Procedure, shortened: as §1

GlcNAc(b1-6)GalNAc = target: GlcNAc(b1-6)GalNAc
Procedure, shortened: as §1

GlcNAc3Prop(b1-4)GlcNAc = target: GlcNAc3Prop(b1-4)GlcNAc
Procedure, shortened: as §1

[13] = target: GlcNAc6S(b1-3)Gal(b1-4)GlcNAc
Procedure, shortened: as §1

Kdn(a2-3)Gal(b1-3)GalNAc = target: Kdn(a2-3)Gal(b1-3)GalNAc
Procedure, shortened: as §1

Kdn(a2-3)Gal(b1-3)GlcNAc = target: Kdn(a2-3)Gal(b1-3)GlcNAc
Procedure, shortened: as §1

Kdn(a2-3)Gal(b1-4)Glc = target: Kdn(a2-3)Gal(b1-4)Glc
Procedure, shortened: as §1

Kdn(a2-3)Gal(b1-4)GlcNAc = target: Kdn(a2-3)Gal(b1-4)GlcNAc
Procedure, shortened: as §1

[14] = target: Kdn(a2-3)Gal(b1-4)[Fuc(a1-3)]GlcNAc
Procedure, shortened: as §1

Kdn(a2-6)Gal(b1-4)GlcNAc = target: Kdn(a2-6)Gal(b1-4)GlcNAc
Procedure, shortened: as §1

[15] = target: Man(a1-2)Man(a1-2)Man(a1-3)Man
Procedure, shortened: as §1

[16] = target: Man(a1-2)Man(a1-2)Man(a1-6)[Man(a1-3)]Man
Procedure, shortened: as §1

Man(a1-2)Man(a1-3)Man = target: Man(a1-2)Man(a1-3)Man
Procedure, shortened: as §1

[17] = target: Man(a1-2)Man(a1-3)[Man(a1-2)Man(a1-6)]Man
Procedure, shortened: as §1

[18] = target: Man(a1-2)Man(a1-3)[Man(a1-2)Man(a1-6)]Man(a1-6)[Man(a1-2)Man(a1-2)Man(a1-3)]Man
Procedure, shortened: as §1

[19] = target: Man(a1-2)Man(a1-3)[Man(a1-2)Man(a1-6)]Man(a1-6)[Man(a1-2)Man(a1-2)Man(a1-3)]Man(b1-4)GlcNAc(b1-4)GlcNAc
Procedure, shortened: as §1

[20] = target: Man(a1-2)Man(a1-3)[Man(a1-6)]Man(a1-6)[Man(a1-2)Man(a1-3)]Man(b1-4)GlcNAc(b1-4)GlcNAc
Procedure, shortened: as §1

[21] = target: Man(a1-2)Man(a1-6)[Man(a1-3)]Man(a1-6)[Man(a1-2)Man(a1-2)Man(a1-3)]Man
Procedure, shortened: as §1

B1: AFL (Aspergillus fumigatus), Q4WW81 (protein)
chain: STPGAQQVLFRTGIAAVNLTNHLRVYFQDVYGSIRESLYEGSWANGTEKNVIGNAKLGSPVAATSKELKHIRVYTLTEGNTLQEFAYDSGTGWYNGGLGGAKFQVAPYSRIAAVFLAGTDALQLRIYAQKPDNTIQEYMWNGDGWKEGTNLGGALPGTGIGATSFRYTDYNGPSIRIWFQTDDLKLVQRAYDPHKGWYPDLVTIFDRAPPRTAIAATSFGAGNSSIYMRIYFVNSDNTIWQVCWDHGKGYHDKGTITPVIQGSEVAIISWGSFANNGPDLRLYFQNGTYISAVSEWVWNRAHGSQLGRSALPPA
- glycan array binding signal (z-score) [1]: -0.378
- glycan array binding signal (z-score) (GlcNAc(b1-3)Gal(b1-4)Glc): -0.386
- glycan array binding signal (z-score) [2]: -0.39
- glycan array binding signal (z-score) [3]: -0.387
- glycan array binding signal (z-score) (GlcNAc(b1-3)GalNAc): -0.386
- glycan array binding signal (z-score) (GlcNAc(b1-3)Man): -0.384
- glycan array binding signal (z-score) [4]: -0.383
- glycan array binding signal (z-score) [5]: -0.39
- glycan array binding signal (z-score) [6]: -0.363
- glycan array binding signal (z-score) [7]: -0.384
- glycan array binding signal (z-score) (GlcNAc(b1-4)GlcNAc): -0.384
- glycan array binding signal (z-score) [8]: -0.384
- glycan array binding signal (z-score) [9]: -0.38
- glycan array binding signal (z-score) [10]: -0.382
- glycan array binding signal (z-score) [11]: -0.386
- glycan array binding signal (z-score) [12]: -0.379
- glycan array binding signal (z-score) (GlcNAc(b1-6)GalNAc): -0.386
- glycan array binding signal (z-score) (GlcNAc3Prop(b1-4)GlcNAc): -0.389
- glycan array binding signal (z-score) [13]: -0.375
- glycan array binding signal (z-score) (Kdn(a2-3)Gal(b1-3)GalNAc): -0.376
- glycan array binding signal (z-score) (Kdn(a2-3)Gal(b1-3)GlcNAc): -0.381
- glycan array binding signal (z-score) (Kdn(a2-3)Gal(b1-4)Glc): -0.393
- glycan array binding signal (z-score) (Kdn(a2-3)Gal(b1-4)GlcNAc): -0.381
- glycan array binding signal (z-score) [14]: -0.35
- glycan array binding signal (z-score) (Kdn(a2-6)Gal(b1-4)GlcNAc): -0.388
- glycan array binding signal (z-score) [15]: -0.388
- glycan array binding signal (z-score) [16]: -0.386
- glycan array binding signal (z-score) (Man(a1-2)Man(a1-3)Man): -0.381
- glycan array binding signal (z-score) [17]: -0.386
- glycan array binding signal (z-score) [18]: -0.384
- glycan array binding signal (z-score) [19]: -0.387
- glycan array binding signal (z-score) [20]: -0.345
- glycan array binding signal (z-score) [21]: -0.391
